Results as given in the supplement of paper PMC3334620.
Over roughly 33,000 sequences, “E-score (-0.5 to 0.5)” has its median near -0.012; the highest 2% begin near 0.27. This is one part of the list.

target: T1, Vhr1 (UniProt P40522); assay: PBM E-score (8-mer binding enrichment) (E-score (-0.5 to 0.5)); higher = stronger / more preferred TF binding; most listed sequences are background and not binding sites; settings: protein concentration: 200 nM; construct: GST-full length
T1 sequence: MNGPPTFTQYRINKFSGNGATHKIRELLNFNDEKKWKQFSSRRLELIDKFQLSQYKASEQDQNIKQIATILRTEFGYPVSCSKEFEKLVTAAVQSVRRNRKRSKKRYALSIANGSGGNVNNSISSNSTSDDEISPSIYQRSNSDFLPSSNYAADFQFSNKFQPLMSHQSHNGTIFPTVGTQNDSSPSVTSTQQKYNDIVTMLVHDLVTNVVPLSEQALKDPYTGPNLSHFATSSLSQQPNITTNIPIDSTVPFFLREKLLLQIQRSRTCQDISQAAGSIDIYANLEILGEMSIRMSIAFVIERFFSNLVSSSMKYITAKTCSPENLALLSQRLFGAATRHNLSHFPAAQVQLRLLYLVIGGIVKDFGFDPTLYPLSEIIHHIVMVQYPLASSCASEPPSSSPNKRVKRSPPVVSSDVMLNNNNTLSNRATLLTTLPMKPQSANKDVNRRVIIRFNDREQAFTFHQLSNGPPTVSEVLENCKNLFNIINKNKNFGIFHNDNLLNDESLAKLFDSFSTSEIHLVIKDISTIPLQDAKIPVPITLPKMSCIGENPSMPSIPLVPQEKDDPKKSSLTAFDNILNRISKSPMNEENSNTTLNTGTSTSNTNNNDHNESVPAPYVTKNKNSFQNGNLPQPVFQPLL
Summary of the method: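 For each ungapped eight-base word taken together with its reverse complement, the Universal PBM Analysis Suite assigned an E-score. Binding data came from GST-tagged yeast transcription factors, applied at about 100-200 nM, on universal all-10-mer Agilent arrays made double-stranded by primer extension. Fluorescent anti-GST marked bound protein, and scans were normalised with masliner.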

Sequence | PBM E-score
ATACAACG | -0.0554
CTAAAACC | -0.253
CGGCCTAG | -0.0469
ACGTACGT | -0.17
ACTACTCA | 0.238
ACCGAGCG | 0.206
CGCGTCGA | 0.147
ACAGCACG | 0.118
AAAGGCAC | -0.227
CGTCTGAA | -0.185
AATTTTAA | -0.176
GGTTCGCA | 0.0758
CTGGCTTA | -0.0672
CTGTACCC | -0.0212
GGTAAAGA | -0.163
AATGAGTA | 0.223
GCGGTGCA | -0.097
ATAGCCAA | 0.145
ATTAAATG | 0.0219
AACTGGGT | -0.041
AAATGCCC | -0.224
ACCTTCCG | 0.0124

Sequence | PBM E-score
ACGATTTG | 0.141
CTATTAGC | 0.0772
CCAAGTTA | -0.0722
TTCCGAAA | -0.158
ATTTAATC | 0.158
GGAATAAA | -0.214
CGGACCTA | -0.036
GGGTCCAA | -0.138
ATCATAAA | 0.0452
TAAGTACA | -0.0281
ACACTCCC | 0.0331
CATTTTCA | -0.0121
CAGGAATA | 0.026
GGTCCGTA | -0.127
ATCAGCAG | 0.236
ACAGCGTC | 0.204
AGGAGCCT | -0.267
CACTGGAG | -0.0471
ACATCCGG | 0.0894
GCTTGGGA | -0.0668
CGGACGCC | -0.062
AATGGCCT | -0.0853

Sequence | PBM E-score
GGATGGAA | -0.132
ATCGCGGG | 0.157
AGTCTGAG | 0.0939
AGTTAAGG | -0.0492
ACATAGCA | 0.0916
CTATTTAA | -0.231
ACTGCTCG | -0.0151
TAGGAATA | -0.103
CCGTATAG | -0.035
GTCTTTAA | -0.129
ATTTTATG | 0.0686
CTACGTGC | 0.00688
CCAGTACG | 0.0275
GCAGAAGA | -0.184
AGACATAA | 0.0468
CGGGCCGA | -0.00376
CCGAATGC | -0.0649
TCCTAGCA | -0.145
TTCAAGAA | -0.231
GGTTGTAA | -0.0284
AGTCAGGA | 0.355
AGGGAAGC | -0.139

Sequence | PBM E-score
TCGAGAAA | -0.1
GCGGGGAA | 0.198
CTGCCAAG | -0.221
AGAAAAAG | -0.166
GAAGGCCC | -0.291
CCTTCCCG | -0.0561
AATGTTCA | 0.0227
CAAGAAGG | -0.0484
GTGGACCA | 0.0132
CGGGGGCC | -0.00988
CACTCTGC | 0.108
AGACTGAT | 0.00223
GGTCGGTA | -0.0355
CGTCAAGC | -0.147
GTCCGTGA | 0.0595
AGGACTAG | 0.0539
GATGCACC | -0.0933
GATTGCCC | -0.165
CGTTTGTC | 0.00711
CTAACCAC | 0.114
